In PubChem BioAssay AID1508649 (National Center for Advancing Translational Sciences (NCATS), 2021):
The whole screen tested about 43,000 compounds, of which about 830 (1.9%) were called active. Inconclusive results, whose numbers are uncertain, are shown with a selection of clear calls. How the source made its calls: active means clear falling dose curves in both reporters; inconclusive means both reporters move, but less clearly or upward; inactive means either reporter flat; the % is the NLuc reporter signal. No potency is given beside an inconclusive call; the fits are too rough.

Assay: Cell-based coincidence reporter assay to measure PMP22 gene transcription in S16 Pmp22-F2sN cells - Primary screen
Details: S16 Pmp22-F2sN Schwann cells (luciferase reporters placed in the Pmp22 gene), FLuc/NLuc coincidence luminescence, 24 h; measured here: NLuc reporter readout, at 57.5 µM (top of the series)
How it was run: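 Reporter cells (S16 Pmp22-F2sN, 500–1,000 per well) exposed to compounds for 24 h, 37C, 5% CO2; lysis with FLuc read after 10 min, then Stop&Glo and NLuc read after 10 min.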
Potency means the concentration at half of the fitted maximal effect; tags describe the fitted curve by direction and shape.

| SMILES | Potency |
| --- | --- |
| CCCCC(=O)Nc1cc(-c2cn3cccnc3n2)ccc1C | inactive |
| O=C(NCc1ccc(Cl)cc1)C(=O)NCC(c1cccnc1)N1CCN(c2ccccc2)CC1 (stereo not drawn) | inconclusive [phenotype inactive, partial curve, poor fit] |
| Cc1cc2c(cc1C)NC(CC(=O)Nc1cccc(C)c1C)C(=O)N2 (stereo not drawn) | inconclusive [phenotype inactive, single point] |
| CCS(=O)(=O)c1c(S(=O)(=O)CC)c2cc(C(C)(C)C)ccn2c1C(=O)c1ccc(F)cc1 | inactive |
| Cc1ccc(-c2noc(CN(C(=O)c3ccc(C(C)(C)C)cc3)C(C)C)n2)cc1 | inconclusive [phenotype inactive, single point] |
| COc1cc(NC(=O)CSc2ccc(-c3sc(C)nc3C)nn2)cc(OC)c1 | inconclusive [phenotype inactive, single point] |
| O=C(CSc1nc2ccccc2n1Cc1cccc(C(F)(F)F)c1)NCc1ccccc1 | inconclusive [phenotype inactive, single point] |
| CCCOc1ccc(C(=O)Nc2cccc(NC(=O)c3ccc(Cl)cc3Cl)c2)cc1 | inconclusive [phenotype inactive, single point] |
| Cc1csc2nc(COC(=O)c3ccc(NC(=O)c4ccccc4Br)cc3)cc(=O)n12 | inconclusive [phenotype inactive, partial curve] |
| O=C(NCCc1csc(-c2ccc(C(F)(F)F)cc2)n1)c1ccccc1Cl | inactive |
| Cc1ccc(C)c(N2CCN(c3nc4ccccc4n4nnnc34)CC2)c1 | inactive |
| COc1ccc(CSc2nc3ccncc3n2Cc2nc(-c3ccc(OC)c(OC)c3)oc2C)cc1 | inactive |
| CCN(Cc1ccccc1)C(=O)Nc1ccc2c(c1)N(C)C(=O)c1ccccc1S2 | inconclusive [phenotype inactive, single point] |
| C=Cc1ccc(Cn2c(=O)n(-c3ccccc3C)c(=O)c3c4c(sc32)CN(C(C)=O)CC4)cc1 | inconclusive [phenotype inactive, single point] |
| O=C(Nc1ccc(Br)cc1)c1ccc(Br)c(S(=O)(=O)NCc2ccccc2)c1 | inconclusive [phenotype inactive, partial curve, poor fit] |
| Cc1ccc(NS(=O)(=O)c2c(C(=O)N3CCCCCC3)c(C)n(C)c2C)cc1F | inactive |
| CN1C(=O)C2CCCCN2c2ccc(C(=O)NCc3ccccc3Br)cc21 (stereo not drawn) | inconclusive [phenotype inactive, partial curve, poor fit] |
| COCCn1c(CNC(=O)c2cc([N+](=O)[O-])ccc2Cl)nc2cccnc21 | inactive |
| O=c1n(Cc2ccc(F)cc2Cl)c2ccccc2c2nc(-c3ccccc3)nn12 | inconclusive [phenotype inactive, single point] |
| CCOc1ccc2nc(N(Cc3cccnc3)C(=O)c3ccc4c(c3)OCCO4)sc2c1 | inconclusive [phenotype inactive, single point] |
| Cc1cccc(CS(=O)(=O)CC2Nc3ccc(C(=O)NCc4ccccc4)cc3NC2=O)c1 (stereo not drawn) | inconclusive [phenotype inactive, single point] |

| SMILES | Potency |
| --- | --- |
| COc1ccc(N2CCN(C(=O)Cn3cnc4sc(C)c(S(=O)(=O)N5CCC(C)CC5)c4c3=O)CC2)cc1 | inactive |
| CCOC(=O)c1ccc(N2C(=O)c3n[nH]c(C)c3C2c2ccc(O)c(OC)c2)cc1 (stereo not drawn) | active: 7.51 µM |
| Cc1ccc2oc(-c3ccc(C)c(NC(=O)c4ccc5c(c4)OCCO5)c3)nc2c1 | inconclusive [phenotype inactive, single point] |
| COc1ccc(-c2n[nH]c3c2C(c2ccc(Cl)cc2Cl)NC3=O)cc1 (stereo not drawn) | inconclusive [phenotype inactive, single point] |
| Cc1sc(C2C(C#N)=C(N)N(c3cccc(Cl)c3)C3=C2C(=O)CCC3)cc1CN1CCOCC1 (stereo not drawn) | inconclusive [phenotype inactive, partial curve] |
| Cc1ccccc1Nc1c(-c2cccc(O)c2)nc2ccc(Br)cn12 | inactive |
| O=c1c2oc3ccccc3c2n(Cc2cccc(Cl)c2)c(=O)n1Cc1ccc2c(c1)OCO2 | inactive |
| Cc1cccc(NC(=O)C(=O)NCC(c2cccnc2)N2CCc3ccccc32)c1C (stereo not drawn) | inconclusive [phenotype inactive, single point] |
| Cc1oc(-c2ccccc2F)nc1CN1CCC(C(=O)NCCc2ccc(Cl)cc2)CC1 | inconclusive [phenotype inactive, partial curve] |
| CCOc1ccccc1NC(=O)c1c(NCc2ccc(C)o2)sc2c1CCCCC2 | active: 13.4 µM |
| CCN(CC)C(=O)CSc1nc(-c2ccccc2F)nc2c1Cc1c(CO)cnc(C)c1O2 | inconclusive [phenotype inactive, single point] |
| COc1ccccc1OCC(=O)NCC(c1ccc(Cl)cc1)N1CCCCC1 (stereo not drawn) | inactive |
| CC1CCn2c(nc3cc(C(=O)NCCc4ccc(Cl)cc4)ccc32)C1 (stereo not drawn) | inactive |
| CN(c1ncnc2onc(-c3cccc(Cl)c3)c12)C1CCCCC1 | inconclusive [phenotype inactive, single point] |
| Cn1c(=O)c2c(nc(NCc3ccccc3)n2Cc2ccccc2)n(C)c1=O | active: 13.4 µM |
| O=C(NC1(C(F)(F)F)C(=O)Nc2c1c(=O)[nH]c(=O)n2CCc1ccccc1)c1ccc(Cl)cc1Cl (stereo not drawn) | inactive |
| Cc1cc(C)cc(NC(=O)CCS(=O)(=O)c2cc3c4c(c2)CCN4C(=O)CC3)c1 | inactive |
| CC(C)COc1ccc(C(=O)Nc2cccc(-c3nc4ccccc4[nH]3)c2)cc1 | inconclusive [phenotype inactive, single point] |
| COc1ccccc1CNC(=O)CCC1N=C2c3ccccc3N=C(SCc3cccc(Cl)c3)N2C1=O (stereo not drawn) | inconclusive [phenotype inactive, full curve] |
| CCOc1ccc(CNS(=O)(=O)c2c(C(=O)N3CCC(C)CC3)c(C)n(C)c2C)cc1OC | inconclusive [phenotype inactive, single point] |
| CC(=O)c1ccc(NC(=O)c2c3c(nc4ccccc24)C(=O)N(C2CCCCC2)C3)cc1 | inconclusive [phenotype inactive, single point] |

| SMILES | Potency |
| --- | --- |
| O=C(Cn1c(=O)n(-c2cccc(Cl)c2)c(=O)c2sc3ccccc3c21)N1CCCC1 | inactive |
| COC(=O)c1c(NC(=O)CCCOc2ccc(C(C)(C)C)cc2)sc2c1CCC(C)C2 (stereo not drawn) | inconclusive [phenotype inactive, single point] |
| O=C(NCCc1csc(-c2ccc(Cl)cc2)n1)c1cccs1 | inconclusive [phenotype inactive, single point] |
| O=C(c1ccc2c(c1)CCN2S(=O)(=O)c1ccccc1)N1CCN(c2ccc(F)cc2)CC1 | inconclusive [phenotype inactive, partial curve] |
| Cc1ccc(NC(=O)CSc2nc3ncccc3[nH]2)cc1F | inactive |
| O=C(Nc1cccc(Br)c1)N1CCC(CN2CCCCC2)CC1 | inactive |
| Cc1noc(C)c1S(=O)(=O)N1CCC(C(=O)N2CCN(c3ccccc3)CC2)CC1 | inactive |
| CCc1ccc(CNCc2c(C(=O)O)n(Cc3cccc(F)c3)c3cc(OC)ccc23)cc1 | inconclusive [phenotype inactive, single point] |
| CC(C)c1ccc(NC(=O)CN(C)S(=O)(=O)c2ccc3c(c2)c(=O)n(C)c(=O)n3C)cc1 | inconclusive [phenotype inactive, single point] |
| Cc1cccc(N2CCN(C(=O)c3c(C)oc4ncnc(N5CCCCC5)c34)CC2)c1C | inconclusive [phenotype inactive, partial curve, poor fit] |
| CCCCOc1ccc(C(=O)N2CCN(CCc3ccccn3)CC2)cc1 | inactive |
| CC(=O)c1ccc(NC(=O)C2=CC(c3ccc4c(c3)OCO4)=NS(=O)(=O)N2C)cc1 | inconclusive [phenotype inactive, single point] |
| COc1ccc(OC)c(CCNc2ncnc3onc(-c4ccc(F)cc4)c23)c1 | inactive |
| CNC(=O)c1cc(Nc2nnc(-c3ccc(O)cc3)c3ccccc23)ccc1OC | inactive |
| Fc1cc(Br)ccc1Nc1c2c(nc3nc(-c4cccs4)nn13)CCCC2 | inconclusive [phenotype inactive, single point] |
| CCCCCn1c(=O)[nH]c2cc(C(=O)N3CCN(c4cccc(C)c4)C(C)C3)ccc2c1=O (stereo not drawn) | inconclusive [phenotype inactive, single point] |
| CS(=O)(=O)N(CC(=O)NCCc1ccccc1)c1cc(C(F)(F)F)ccc1Cl | inactive |
| COc1ccccc1CN1COc2ccc3c(oc(=O)c4ccccc43)c2C1 | inactive |
| CCn1cc(C(=O)NCc2ccccc2OC)c(=O)c2cc(S(=O)(=O)N3CCCCC3)ccc21 | inconclusive [phenotype inactive, partial curve] |
| C#CCOc1ccc(-c2nnc(Nc3cccc(C)c3)c3ccccc23)cc1 | inconclusive [phenotype inactive, single point] |
| Cc1ccc(CNC(=O)CCCCCn2c(=O)c3sccc3n(CC(=O)N(C)c3ccccc3)c2=O)cc1 | inconclusive [phenotype inactive, single point] |
